Reference: US7517874B2 (priority 2007, dated 2009)
Where two headings read alike, the source gives them in different places.

Molecular target: human CB2 receptor (hCB2) (Homo sapiens, UniProt P34972)
Experiment: cell-based
Format: cell-based
Conditions: for +/− HCB2: agonist or inverse agonist at hCB2
[1] = groups >100 nM-10 μM and >10 μM, cAMP, CHO-K1 hCB2, read-out: EC50 HCB2

Sequence of human CB2 receptor (hCB2) (P34972 whole entry): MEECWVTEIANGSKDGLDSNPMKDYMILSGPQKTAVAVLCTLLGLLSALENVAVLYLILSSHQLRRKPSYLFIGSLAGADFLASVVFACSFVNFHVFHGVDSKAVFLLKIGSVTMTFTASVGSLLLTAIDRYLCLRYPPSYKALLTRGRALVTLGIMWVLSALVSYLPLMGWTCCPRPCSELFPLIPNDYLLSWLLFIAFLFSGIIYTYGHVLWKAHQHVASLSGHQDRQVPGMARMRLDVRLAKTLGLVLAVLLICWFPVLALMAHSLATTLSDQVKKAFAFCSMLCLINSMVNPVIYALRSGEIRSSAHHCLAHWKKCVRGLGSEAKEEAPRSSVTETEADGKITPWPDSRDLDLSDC

Row | Compound | +/− HCB2 | also measured
1 | CNC(=O)[C@@H](NC(=O)c1nc(C(C)C)n2c1CN(C)CCC2)C(C)(C)C [Compound 496, (S)-N-(3,3-dimethyl-1-(methylamino)-1-oxobutan-2-yl)-3-isopropyl-8-methyl-6,7,8,9-tetrahydro-5H-imidazo[1,5-a][1,4]diazepine-1-carboxamide] | + | 
2 | CN1CCCn2c(-c3ccccc3)nc(C(=O)Nc3nc(C(C)(C)C)cs3)c2C1 [Compound 596, N-(4-tert-butylthiazol-2-yl)-8-methyl-3-phenyl-6,7,8,9-tetrahydro-5H-imidazo[1,5-a][1,4]diazepine-1-carboxamide] | + | 
3 | CC(C)C[C@H](NC(=O)c1nc(-c2ccc(Cl)cc2F)n2c1CN(C)CCC2)C(N)=O [Compound 564, (S)-N-(1-amino-4-methyl-1-oxopentan-2-yl)-3-(4-chloro-2-fluorophenyl)-8-methyl-6,7,8,9-tetrahydro-5H-imidazo[1,5-a][1,4]diazepine-1-carboxamide] | + | 
4 | CNC(=O)[C@@H](NC(=O)c1nc(-c2ccc(C#N)cc2)n2c1CN(C)CCC2)C(C)(C)C [Compound 342] | + | 
5 | C[C@@H](NC(=O)c1nc(-c2ccccc2)n2c1CN(CCO)CC2)C1CCCCC1 [Compound 140, (R)-N-(1-cyclohexylethyl)-7-(2-hydroxyethyl)-3-phenyl-5,6,7,8-tetrahydroimidazo[1,5-a]pyrazine-1-carboxamide] | + | 
6 | CNC(=O)[C@@H](NC(=O)c1nc(-c2ccccc2)n2c1CN(S(=O)(=O)c1cccc(F)c1)CC2)C(C)(C)C [Compound 99, (S)-N-(3,3-dimethyl-1-(methylamino)-1-oxobutan-2-yl)-7-(3-fluorophenylsulfonyl)-3-phenyl-5,6,7,8-tetrahydroimidazo[1,5-a]pyrazine-1-carboxamide] | − | 
7 | CNC(=O)[C@H](CC(C)C)NC(=O)c1nc(-c2cccc(F)c2)n2c1CN(C)CCC2 [Compound 531, (S)-3-(3-fluorophenyl)-8-methyl-N-(4-methyl-1-(methylamino)-1-oxopentan-2-yl)-6,7,8,9-tetrahydro-5H-imidazo[1,5-a][1,4]diazepine-1-carboxamide] | + | 
8 | COC(=O)N1CCn2c(-c3ccc(Cl)cc3)nc(C(=O)NCCC(C)C)c2C1 [Compound 183, methyl 3-(4-chlorophenyl)-1-(isopentylcarbamoyl)-5,6-dihydroimidazo[1,5-a]pyrazine-7(8H)-carboxylate] | − | 
9 | CNC(=O)[C@@H](NC(=O)c1nc(C2=CCCCO2)n2c1CN(C)CCC2)C(C)(C)C [Compound 452, (S)-3-(3,4-dihydro-2H-pyran-6-yl)-N-(3,3-dimethyl-1-(metylamino)-1-oxobutan-2-yl)-8-methyl-6,7,8,9-tetrahydro-5H-imidazo[1,5-a][1,4]diazepine-1-carboxamide] | + | 
10 | Cc1nnc([C@@H](NC(=O)c2nc(-c3ccccc3)n3c2CN(CC(C)C)CC3)C(C)(C)C)o1 [Compound 202, (S)-N-(2,2-dimethyl-1-(5-methyl-1,3,4-oxadiazol-2-yl)propyl)-7-isobutyl-3-phenyl-5,6,7,8-tetrahydroimidazo[1,5-a]pyrazine-1-carboxamide] | + | 
11 | CNC(=O)[C@@H](NC(=O)c1nc(-c2cc(C(N)=O)ccc2F)n2c1CN(C)CCC2)C(C)(C)C [Compound 405, (S)-3-(5-carbamoyl-2-fluorophenyl)-N-(3,3-dimethyl-1-(methylamino)-1-oxobutan-2-yl)-8-methyl-6,7,8,9-tetrahydro-5H-imidazo[1,5-a][1,4]diazepine-1-carboxamide] |  | EC50 [1]: > 10000 nM
12 | C[C@H](NC(=O)c1nc(-c2ccccc2)n2c1CN(CCO)CC2)c1ccccc1 [Compound 146, (S)-7-(2-hydroxyethyl)-3-phenyl-N-(1-phenylethyl)-5,6,7,8-tetrahydroimidazo[1,5-a]pyrazine-1-carboxamide] |  | EC50: > 10000 nM
13 | CC(C)CNC(=O)[C@@H](NC(=O)c1nc(-c2ccccc2)n2c1CN(C)CCC2)C(C)(C)C [Compound 474, (S)-N-(1-(isobutylamino)-3,3-dimethyl-1-oxobutan-2-yl)-8-methyl-3-phenyl-6,7,8,9-tetrahydro-5H-imidazo[1,5-a][1,4]diazepine-1-carboxamide] | + | 
14 | CNC(=O)[C@H](CC(C)C)NC(=O)c1nc(-c2ccc(F)cc2)n2c1CN(C)CCC2 [Compound 530, (S)-3-(4-fluorophenyl)-8-methyl-N-(4-methyl-1-(methylamino)-1-oxopentan-2-yl)-6,7,8,9-tetrahydro-5H-imidazo[1,5-a][1,4]diazepine-1-carboxamide] | + | 
15 | CN1CCn2c(-c3ccc(Cl)cc3F)nc(C(=O)NCc3ccc4[nH]c(=O)[nH]c4c3)c2C1 [Compound 228, 3-(4-chloro-2-fluorophenyl)-7-methyl-N-((2-oxo-2,3-dihydro-1H-benzo[d]imidazol-5-yl)methyl)-5,6,7,8-tetrahydroimidazo[1,5-a]pyrazine-1-carboxamide] |  | EC50 [1]: > 10000 nM
16 | CC(C)CN1CCn2c(-c3ccc(Cl)cc3)nc(C(=O)N[C@H](CO)C(C)(C)C)c2C1 [Compound 160, (S)-3-(4-chlorophenyl)-N-(1-hydroxy-3,3-dimethylbutan-2-yl)-7-isobutyl-5,6,7,8-tetrahydroimidazo[1,5-a]pyrazine-1-carboxamide] |  | EC50: > 10000 nM
17 | CNC(=O)[C@@H](NC(=O)c1nc(C2=CCCCCC2)n2c1CN(C)CC2)C(C)(C)C [Compound 272, (S,E)-3-cycloheptenyl-N-(3,3-dimethyl-1-(methylamino)-1-oxobutan-2-yl)-7-methyl-5,6,7,8-tetrahydroimidazo[1,5-a]pyrazine-1-carboxamide] | + | 
18 | O=C(NCC1CCOCC1)c1nc(-c2ccccc2)n2c1CN(C(=O)C1CCOC1)CC2 (stereo not shown) [Compound 135, 3-phenl-N-((tetrahydro-2H-pyran-4-yl)methyl)-7-(tetrahydrofuran-3-carbonyl)-5,6,7,8-tetrahydroimidazo[1,5-a]pyrazine-1-carboxamide] |  | EC50 [1]: > 10000 nM
19 | O=C(Nc1ccccc1)c1nc(-c2ccccc2)n2c1CN(CCO)CC2 [Compound 151, 7-(2-hydroxyethyl)-N,3-diphenyl-5,6,7,8-tetrahydroimidazo[1,5-a]pyrazine-1-carboxamide] |  | EC50 [1]: > 10000 nM
20 | CNC(=O)[C@@H](NC(=O)c1nc(-c2cccc(C(=O)N(C)C)c2)n2c1CN(C)CCC2)C(C)(C)C [Compound 412, (S)-N-(3,3-dimethyl-1-(methylamino)-1-oxobutan-2-yl)-3-(3-(dimethylcarbamoyl)phenyl)-8-methyl-6,7,8,9-tetrahydro-5H-imidazo[1,5-a][1,4]diazepine-1-carboxamide] |  | EC50: > 10000 nM
21 | COCCNC(=O)[C@@H](NC(=O)c1nc(-c2ccccc2)n2c1CN(C)CCC2)C(C)(C)C [Compound 475, (S)-N-(1-(2-methoxyethylamino)-3,3-dimethyl-1-oxobutan-2-yl)-8-methyl-3-phenyl-6,7,8,9-tetrahydro-5H-imidazo[1,5-a][1,4]diazepine-1-carboxamide] | + | 
22 | CNC(=O)[C@@H](NC(=O)c1nc(C(C)C(C)C)n2c1CN(C)CCC2)C(C)(C)C (stereo partly drawn) [Compound 507, N-((S)-3,3-dimethyl-1-(methylamino)-1-oxobutan-2-yl)-8-methyl-3-(3-methylbutan-2-yl)-6,7,8,9-tetrahydro-5H-imidazo[1,5-a][1,4]diazepine-1-carboxamide] | + | 
